Data from PubChem BioAssay AID1645887 (National Center for Advancing Translational Sciences (NCATS), 2021).
Values joined by “and” are separate entries in the source; they are usually repeats but may differ in a detail not shown here. Identical values can stand only once. About 40 (0.2%) of roughly 16,000 compounds were called active. Inconclusive results (about 1%) are left out. The call rests on the fitted dose curve; in most records, active means well fitted activation curve with a large enough effect; inconclusive means small, poorly fitted or top-dose-only effect, or another doubt; inactive means no such curve, though single readings can be large or run the other way. The list shows a part of the results.

molecular target: Rap guanine nucleotide exchange factor 4 (Homo sapiens) (UniProt Q8WZA2); experiment: Validation qHTS for agonist of cAMP-regulated guanine nucleotide exchange factor 4 (EPAC2); settings: EPAC2 Rap1B BODIPY-GDP exchange, fluorescence; activation: stronger effect = higher value;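 further: exchange makes BODIPY-GDP fluorescence drop when released from Rap1B; series mostly up to about 150 µM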
Sequence of UniProt Q8WZA2 (Q8WZA2 whole entry, looked up): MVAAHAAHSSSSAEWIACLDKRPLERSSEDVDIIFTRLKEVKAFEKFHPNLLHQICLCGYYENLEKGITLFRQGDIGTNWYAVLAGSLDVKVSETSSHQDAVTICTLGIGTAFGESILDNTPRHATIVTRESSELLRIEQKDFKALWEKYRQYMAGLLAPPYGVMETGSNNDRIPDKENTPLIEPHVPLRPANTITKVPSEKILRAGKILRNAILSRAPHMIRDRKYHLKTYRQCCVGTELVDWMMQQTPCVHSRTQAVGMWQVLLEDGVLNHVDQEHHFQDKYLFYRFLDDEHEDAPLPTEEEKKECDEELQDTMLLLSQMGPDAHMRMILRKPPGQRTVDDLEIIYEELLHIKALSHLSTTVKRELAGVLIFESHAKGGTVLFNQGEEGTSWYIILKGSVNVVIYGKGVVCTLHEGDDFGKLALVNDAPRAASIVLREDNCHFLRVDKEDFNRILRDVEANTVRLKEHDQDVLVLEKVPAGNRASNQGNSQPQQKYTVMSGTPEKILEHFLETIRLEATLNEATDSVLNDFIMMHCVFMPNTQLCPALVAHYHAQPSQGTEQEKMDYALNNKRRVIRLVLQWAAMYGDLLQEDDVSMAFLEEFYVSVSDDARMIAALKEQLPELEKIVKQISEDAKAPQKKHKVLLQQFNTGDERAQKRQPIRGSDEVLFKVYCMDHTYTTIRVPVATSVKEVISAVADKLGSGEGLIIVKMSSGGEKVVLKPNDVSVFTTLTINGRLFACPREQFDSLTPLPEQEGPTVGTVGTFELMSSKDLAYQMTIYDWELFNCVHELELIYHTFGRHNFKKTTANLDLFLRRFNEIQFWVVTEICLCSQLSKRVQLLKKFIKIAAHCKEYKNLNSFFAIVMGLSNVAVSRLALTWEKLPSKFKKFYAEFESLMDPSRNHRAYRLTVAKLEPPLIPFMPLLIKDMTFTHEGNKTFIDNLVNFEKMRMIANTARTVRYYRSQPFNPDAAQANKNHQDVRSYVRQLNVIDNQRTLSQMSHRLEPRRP
Outline: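 Signal normalized against 6.5 mM cAMP as agonist control. Mix of EPAC2 (100 nM), RAP1B-BODIPY-GDP (250 nM) and GDP (50 uM) was read kinetically at 480/540 nm, every 5 min over 30 min, after 5 min room-temperature incubation with compound.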
On the % scale 0 is the no-effect control and ±100 the full control effect.

Row | SMILES | activation
1 | CS(=O)(=O)N1CCC2(CC1)CN(Cc1ccncc1)C2 | inactive: -1.96%
2 | NC(=NCCCC(N)C(=O)O)N[N+](=O)[O-] (stereo not given) | inactive: -8.68%
3 | CNC(=O)Oc1ccccc1C(=O)Nc1ccccc1 | inactive: -1.5%
4 | C=CCC1([C@H](C)CCC)C(=O)NC(=O)NC1=O | inactive: -11.9%
5 | O=[N+]([O-])c1ccc(O)c([N+](=O)[O-])c1 | inactive: -22.9%
6 | COC1=C[C@]23CCCN2CCc2cc4c(cc2[C@@H]3[C@@H]1O)OCO4 | inactive: -19.1%
7 | CN1CCCC2(CCN(C(=O)c3csnn3)CC2)C1 | inactive: -21.6%
8 | O[C@@H](Cc1ccncc1)C(Cl)(Cl)Cl | inactive: -13.6%
9 | CC(=O)OC1CC2C(C)(C)C(=O)C=C[C@]2(C)C2CC[C@]3(C)C(=CC(=O)OC3c3ccoc3)[C@]12C (stereo not given in full) | inactive: 8.24%
10 | CN1CCN(c2ccc3ccccc3n2)CC1 | inactive: -12.5% and inactive: 10.7%
11 | CCn1cnc2c(Nc3cccc(Cl)c3)nc(N[C@@H]3CCCC[C@@H]3N)nc21 | inactive: -9.27%
12 | CN1[C@@H]2CC[C@H]1CC(OC(c1ccc(F)cc1)c1ccc(F)cc1)C2 (stereo not given in full) | inactive: 5.03%
13 | C=CC1CN2CCC1CC2C(O)c1ccnc2ccccc12 (stereo not given) | inactive: -7.61% and inactive: 5.08%
14 | C[C@H]1CCCC=CC2C[C@H](O)C[C@@H]2[C@H](O)C=CC(=O)O1 (stereo not given in full) | inactive: -17%
15 | CCC(C)C(=O)OC1C[C@@]2(C)C(c3ccoc3)OC(=O)CC23OC2(C)OC34C(OC(=O)C(C)C)[C@]3(O)C(OC(=O)C5(C)OC5C)[C@]5(C)CC3(O)[C@](C)(C5CC(=O)OC)C14O2 (stereo not given in full) | inactive: -31.7%
16 | C=C1[C@@H](O)C2C=CC[C@H](C)C(=O)[C@@](C)(O)C=C[C@@H](OC(C)=O)[C@@]23C(=O)N[C@H](Cc2ccccc2)[C@@H]3[C@@H]1C (stereo not given in full) | inactive: -11.4%
17 | CN[C@@H](Cc1c[nH]c2ccccc12)C(=O)O | inactive: 1.62%
18 | CCOP(=O)(NC(C)C)Oc1ccc(SC)c(C)c1 (stereo not given) | inactive: -15.6%
19 | CC1OC(C)OC(C)O1 (stereo not given) | inactive: 5.62% and inactive: 6.55%
20 | S=C(SSC(=S)N1CCCCC1)N1CCCCC1 | inactive: -5.28%
21 | CCCCCCCCCC[N+](C)(C)CCCCCCCCCC | inactive: -28.8%
22 | Nc1ccc([As](=O)(O)O)cc1 | inactive: 2.63%

Row | SMILES | activation
23 | C[C@]12CC[C@H]3[C@@H](CCC4=C(O)C(=O)CC[C@@H]43)[C@@H]1CC[C@@H]2OC(=O)CCC1CCCC1 | inactive: -0.751%
24 | NCCc1c[nH]c2ccc(C(N)=O)cc12 | inactive: -12.8% and inactive: 7.53% and inactive: -7.14%
25 | COP(=S)(OC)Oc1cc(Cl)c(Cl)cc1Cl | inactive: -9.54% and inactive: -6.58%
26 | COc1cc2occc2c2oc(=O)ccc12 | inactive: -2.12% and inactive: -20%
27 | C[C@@]12CCC3C(CCC4=CC(=O)CC[C@]43C)C1CCC2O (stereo not given in full) | inactive: -23.8%
28 | CC1=C2C3OC(=O)C(C)C3CC[C@@]2(C)C=CC1=O (stereo not given in full) | inactive: -4.6%
29 | Oc1ccc2c3c1O[C@H]1c4oc5ccccc5c4C[C@]4(O)[C@H](C2)N(CC2CC2)CC[C@@]314 | inactive: -1.57%
30 | CN1C(=O)C(O)N=C(c2ccccc2)c2cc(Cl)ccc21 (stereo not given) | inactive: -2.33%
31 | O=C(NC1CCCCC1)[C@@H]1CC=C[C@@H]2CCN(Cc3ccccc3)C(=O)[C@@H]21 | inactive: -18%
32 | O=S(=O)(O)C(F)(F)C(F)(F)C(F)(F)C(F)(F)F | inactive: 4.13%
33 | COc1ccc(C2Oc3c(I)c(OC)cc(OC)c3CC2O)cc1OC (stereo not given) | inactive: -2.98%
34 | Cc1ccc(C(=O)CN2CCOCC2)cc1 | inactive: -4.85%
35 | CCOC(=O)[C@]12Cc3cc(OC)c(OC)cc3[C@H]1N(Cc1ccccc1)C(=O)c1ccccc12 | inactive: -18%
36 | CCCCCCCCC(=O)NCc1ccc(O)c(OC)c1 | inactive: -21.2% and inactive: -47.5%
37 | COc1ccc2c(C(=O)c3ccc(Cl)cc3)c(C)n(CC(=O)O)c2c1 | inactive: -6.61%
38 | COC(COC(N)=O)C1=C(N2CC2)C(=O)C(C)=C(N2CC2)C1=O (stereo not given) | inactive: -2.06%
39 | NC(C(=O)O)c1cc(=O)[nH]o1 (stereo not given) | inactive: 3.53% and inactive: -4.14%
40 | CCC(C(N)=O)N1CCCC1=O (stereo not given) | inactive: -18.4%
41 | CCCCCCCCCCCC[N+](C)(C)CCOc1ccccc1 | inactive: -32.7%
42 | C[N+]1([O-])[C@@H]2CC[C@H]1CC(OC(=O)C(CO)c1ccccc1)C2 (stereo not given in full) | inactive: 13.3% and inactive: 5.79%
43 | CC(C)(c1ccc(OC[C@@H]2CO2)cc1)c1ccc(OC[C@H]2CO2)cc1 | inactive: -34.2%
44 | Nc1ccc(CCN2CCN(c3cccc(C(F)(F)F)c3)CC2)cc1 | inactive: 2.03% and inactive: -11.8%

Row | SMILES | activation
45 | COc1cccc2c1cc([N+](=O)[O-])c1c(C(=O)O)cc3c(c12)OCO3 | inactive: -5.26% and inactive: -7.82% and inactive: 0.442%
46 | CC(C)NCC(O)c1ccccc1Cl (stereo not given) | inactive: 20.7%
47 | CC(=O)NCCc1c[nH]c2ccccc12 | inactive: -0.276% [middle of 4 runs]
48 | CC[N+](C)(CC)CCOC(=O)C(O)(c1ccccc1)c1ccccc1 | inactive: -4.14%
49 | O=C(Nc1ccccc1-c1ccc(Cl)cc1)c1cccnc1Cl | inactive: -22.5%
50 | COc1ccc(/C=C/c2cc(O)cc(O)c2)cc1 | inactive: -15.2%
51 | O[C@H]1CCCC[C@H]1N1CCC(c2ccccc2)CC1 | inactive: -4.75%
52 | O=c1ccc2[nH]cc(C3=CCNCC3)c2[nH]1 | inactive: -17.9%
53 | C=CCN1CC[C@]23CCCC[C@H]2[C@H]1Cc1ccc(O)cc13 | inactive: -13.4%
54 | c1ccc(N2CC[C@@]3(CCCNC3)C2)cc1 | inactive: -3.95%
55 | FC(F)(F)c1cccc(C2=CCN(CCc3ccc4ccccc4c3)CC2)c1 | inactive: 7.11%
56 | CC(C)c1ccc2c(c1O)CCC1C3=C(CC[C@]21C)C(=O)OC3 (stereo not given in full) | inactive: -28.4%
57 | ClC1=C(Cl)C2(Cl)C(CBr)CC1(Cl)C2(Cl)Cl (stereo not given) | inactive: -1.27%
58 | CC(=O)[O][Hg][c]1ccccc1 | inactive: -13.9%
59 | CC(=O)Oc1ccc2c3c1O[C@H]1[C@@H](OC(C)=O)C=C[C@H]4[C@@H](C2)N(C)CC[C@@]341 | inactive: -7.42% and inactive: 2.91%
60 | CC(=O)O[C@H]1C[C@H](O[C@H]2[C@@H](O)C[C@H](O[C@H]3[C@@H](O)C[C@H](OC4CC[C@@]5(C)C(CC[C@@H]6[C@@H]5CC[C@]5(C)[C@@H](C7=CC(=O)OC7)[C@@H](O)C[C@]65O)C4)O[C@@H]3C)O[C@@H]2C)O[C@H](C)[C@H]1O[C@@H]1O[C@H](CO)[C@@H](O)[C@H](O)[C@H]1O (stereo not given in full) | inactive: -6.67%
61 | CCN(CCO)CCn1c(Cc2ccccc2)nc2c1c(=O)n(C)c(=O)n2C | inactive: 5.03%
62 | NCC[C@H](O)C(=O)N[C@@H]1C[C@H](N)[C@@H](O[C@H]2O[C@H](CN)[C@@H](O)[C@H](O)[C@H]2N)[C@H](O[C@@H]2O[C@H](CO)[C@@H](O)[C@H]2O)[C@H]1O | inactive: -6.38%
63 | C=CCOC(Cn1ccnc1)c1ccc(Cl)cc1Cl (stereo not given) | inactive: -21.4%
64 | CC(=O)Nc1cc([As](=O)(O)O)ccc1O | inactive: 7.36%
65 | O=C(O)/C=C/CO | inactive: -6.7% and inactive: -11.7%
66 | CCCN1CC[C@@H]2c3cc(O)ccc3CC[C@@H]21 | inactive: -18.1%

Row | SMILES | activation
67 | NC(=NCc1ccc(Cl)cc1)SCCCc1cnc[nH]1 | inactive: -19%
68 | COc1ccc2c3c1O[C@H]1C(=O)CC[C@H]4[C@@H](C2)N(C)CC[C@]314 | inactive: 3.3%
69 | COc1c(CC=C(C)C)c2c(c3oc(=O)c(-c4ccc(O)cc4)c(O)c13)C=CC(C)(C)O2 | inactive: -10.8%
70 | c1csc(CN2CC3(CCNCC3)C2)n1 | inactive: -21.3%
71 | C=C[C@H]1CN2CC[C@H]1C[C@H]2c1[nH]c2ccccc2c1CCO | inactive: 2.57%
72 | C#CCN(C)[C@H](C)Cc1ccccc1 | inactive: -5.95% and inactive: -0.841% and inactive: -6.72%
73 | O=C(Nc1ccc(Br)cc1)c1cc(Br)cc(Br)c1O | inactive: -15%
74 | COc1cc(C[C@H](C)N)c(OC)cc1C | inactive: -8.61%
75 | c1ccc(CCN2CCCCC2)cc1 | inactive: -21.1%
76 | NCCc1ccccc1 | inactive: -2.88%
77 | C[C@@H]1O[C@@H](O[C@@H]2C=C3CC[C@@H]4[C@H](CC[C@]5(C)[C@@H](c6ccc(=O)oc6)CC[C@]45O)[C@@]3(C)CC2)[C@H](O)[C@H](O)[C@H]1O | inactive: -5.39%
78 | CNCC/C=C\c1cccnc1 | inactive: -12.1%
79 | CCc1c(C(=O)OC)ncc2[nH]c3cc(OC)c(OC)cc3c12 | inactive: -3.11%
80 | O[C@@H]1CCCN2C[C@@H](O)[C@@H](O)C12 (stereo not given in full) | inactive: -1.66%
81 | O=C1Nc2ccc(Cl)cc2C(c2ccccc2)=NC1O (stereo not given) | inactive: -9.49% and inactive: -7.92%
82 | COc1ccc2c(c1)[C@@]13CCCCC1[C@@H](C2)N(C)CC3 (stereo not given in full) | inactive: 2.88%
83 | CC(N)c1cccc(Cl)c1Cl (stereo not given) | inactive: -6.34%
84 | CC(C)(O)[C@@H]1C2OC(=O)[C@@H]1[C@]1(O)C[C@H]3O[C@]34C(=O)O[C@H]2[C@]14C | inactive: -6.02%
85 | Cc1noc(C)c1C(=O)N1CCC[C@@]2(CCN(CC(C)C)C2)C1 | inactive: -14.3%
